B1: cdsA I7P (protein)
chain: MLKYRLPSAFVLIPVVIAALFLLPPVGFAIVTLVVCMLAAWEWGQLSGFTTRSQRVWLAVLCGLLLALMLFLLPEYHRNIHQPLVEISLWASLGWWIVALLLVLFYPGSAAIWRNSKTLRLIFGVLTIVPFFWGMLALRAWHYDENHYSGAIWLLYVMILVWGADSGAYMFGKLFGKHKLAPKVSPGKTWQGFIGGLATAAVISWGYGMWANLDVAPVTLLICSIVAALASVLGDLTESMFKREAGIKDSGHLIPGHGGILDRIDSLTAAVPVFACLLLLVFRTL
B2: cdsA V16A (protein)
chain: B1 chain with P7I, V16A
B3: cdsA I17P (protein)
chain: B1 chain with P7I, I17P
B4: cdsA L20D (protein)
chain: B1 chain with P7I, L20D
B5: cdsA V16D (protein)
chain: B1 chain with P7I, V16D
B6: cdsA I17Q (protein)
chain: B1 chain with P7I, I17Q
B7: cdsA L20Q (protein)
chain: B1 chain with P7I, L20Q
B8: cdsA I17W (protein)
chain: B1 chain with P7I, I17W
B9: cdsA I17A (protein)
chain: B1 chain with P7I, I17A
B10: cdsA L20A (protein)
chain: B1 chain with P7I, L20A
B11: cdsA V16W (protein)
chain: B1 chain with P7I, V16W
B12: cdsA L20W (protein)
chain: B1 chain with P7I, L20W
B13: cdsA V16Q (protein)
chain: B1 chain with P7I, V16Q
B14: cdsA V16P (protein)
chain: B1 chain with P7I, V16P
B15: cdsA I17D (protein)
chain: B1 chain with P7I, I17D

Residue numbers refer to the chain shown, from its start. Numbers in names are those of the source. ± gives the standard deviation of the averaged measurements. Laboratory Escherichia coli strains with one amino-acid change in an essential protein, pooled on minimal glucose agar with carbenicillin or gentamicin at twice the control MIC (plus kanamycin and chloramphenicol for the plasmids), 48 h. Fold change of barcode share against drug-free plates; higher = less susceptible. Active = above 20 in both replicates (the paper's putatively resistant). '<' = one read or none on drug, '>' = one read or none on a drug-free plate. Shares are relative, so most strains fall below 1 when a few take over. Listed are strains with at least 15 reads on both drug-free plates, and hits; most hits rest on fewer reference reads. Replicate rank correlation about 0.5. Edits are read from barcodes.

In one data set the target is Escherichia coli (laboratory strain). Briefly: barcode share on antibiotic plates over drug-free plates; higher = less susceptible. As to conditions: antibiotic: carbenicillin; 2× MIC (3.1 µg/mL). How it is done:
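A pool of E. coli strains, each edited to carry one amino-acid change in an essential protein, was grown for 48 h on minimal glucose agar with or without antibiotic; strain barcodes were sequenced; mean of two replicates.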
Consider B1, for which the “fold change of barcode share” value amounted to 0.22 ± 0.045.
Still for that read-out and setting: in the case of B2 it was 0.4 ± 0.019.
Still for that read-out and setting: with B3 the figure was 0.244 ± 0.042; with B4, 0.304 ± 0.0099.
On the same count and under the same terms, in the case of B5 it was 0.334 ± 0.052.
B6: the “fold change of barcode share” value came out at 0.525 ± 0.026.
Consider B7, for which the “fold change of barcode share” value came to 0.227 ± 0.077.
Still for that read-out and setting: in the case of B8 it was 0.305 ± 0.072.
For the protein B9, the “fold change of barcode share” value came to 0.946 ± 0.98.
Same read-out and setting: with B10 the figure was 0.258 ± 0.091.
The same measure, in the same setting: in the case of B11 it was 1.19 ± 1.4.
The same measure, in the same setting: with B12 the figure was 0.271 ± 0.084; with B13, 0.305 ± 0.069.
Regarding B14, the “fold change of barcode share” value was 0.276 ± 0.0036.
As to B15, the “fold change of barcode share” value was 0.232 ± 0.026.

The data set is the same for the next values; noted with them: antibiotic: gentamicin; 2× MIC (MIC 0.45 µg/mL).
B1: the “fold change of barcode share” value came to 0.18 ± 0.17.
With B2, the “fold change of barcode share” value is 0.0064 ± 0.0028.
As for B3, the “fold change of barcode share” value is less than 0.00644.
The same measure, in the same setting: with B4 the figure was 0.0098 ± 0.0084; with B5, less than 0.00363; with B6, 0.00515 ± 0.0046.
On the same count and under the same terms, in the case of B7 it was 0.00583 ± 0.0054; in that of B8, 0.0104 ± 0.004; in that of B9, 0.00971 ± 0.0089.
On the same count and under the same terms, in the case of B10 it was 0.00577 ± 0.0055; in that of B11, 0.00704 ± 0.0054; in that of B12, 0.0125 ± 0.0056.
Take B13: the “fold change of barcode share” value turned out to be 0.0121 ± 0.0084.
On the same count and under the same terms, with B14 the figure was 0.0048 ± 0.0029; with B15, 0.0812 ± 0.11.

The values above are taken from the supplement of paper PMC11876631.
